According to paper PMC3742252 (2013):

Target: Thyroid-stimulating hormone (bTSH-biotin) (Bos taurus, UniProt P01217)
Test: Scatchard analysis of saturation binding (chemiluminescence, AP-streptavidin)

B1: Thyroid-stimulating hormone receptor (Mms13-hTSHR on BacMPs) (protein)
chain: not shown
modifications: Mms13 N-terminal fusion and C-terminal FLAG tag on TSHR displayed on bacterial magnetic particles; biotin-labeled TSH
Kd: 190 nM
